Measured values from PMC4336329 (PLoS ONE, 2015).
About 14,000 (4.5%) of roughly 310,000 compounds showed an effect of 50% or more. Effects have a minus sign here. This is one part of the list.

Biological target: human ether-à-go-go-related gene (hERG) potassium channel (human, UniProt Q12809)
Test: primary screen, population patch clamp on CHO cells stably expressing hERG
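Further: peak tail current of the secondary pulse compared with the same well before compound.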

human ether-à-go-go-related gene (hERG) potassium channel, sequence (Q12809 whole entry, looked up): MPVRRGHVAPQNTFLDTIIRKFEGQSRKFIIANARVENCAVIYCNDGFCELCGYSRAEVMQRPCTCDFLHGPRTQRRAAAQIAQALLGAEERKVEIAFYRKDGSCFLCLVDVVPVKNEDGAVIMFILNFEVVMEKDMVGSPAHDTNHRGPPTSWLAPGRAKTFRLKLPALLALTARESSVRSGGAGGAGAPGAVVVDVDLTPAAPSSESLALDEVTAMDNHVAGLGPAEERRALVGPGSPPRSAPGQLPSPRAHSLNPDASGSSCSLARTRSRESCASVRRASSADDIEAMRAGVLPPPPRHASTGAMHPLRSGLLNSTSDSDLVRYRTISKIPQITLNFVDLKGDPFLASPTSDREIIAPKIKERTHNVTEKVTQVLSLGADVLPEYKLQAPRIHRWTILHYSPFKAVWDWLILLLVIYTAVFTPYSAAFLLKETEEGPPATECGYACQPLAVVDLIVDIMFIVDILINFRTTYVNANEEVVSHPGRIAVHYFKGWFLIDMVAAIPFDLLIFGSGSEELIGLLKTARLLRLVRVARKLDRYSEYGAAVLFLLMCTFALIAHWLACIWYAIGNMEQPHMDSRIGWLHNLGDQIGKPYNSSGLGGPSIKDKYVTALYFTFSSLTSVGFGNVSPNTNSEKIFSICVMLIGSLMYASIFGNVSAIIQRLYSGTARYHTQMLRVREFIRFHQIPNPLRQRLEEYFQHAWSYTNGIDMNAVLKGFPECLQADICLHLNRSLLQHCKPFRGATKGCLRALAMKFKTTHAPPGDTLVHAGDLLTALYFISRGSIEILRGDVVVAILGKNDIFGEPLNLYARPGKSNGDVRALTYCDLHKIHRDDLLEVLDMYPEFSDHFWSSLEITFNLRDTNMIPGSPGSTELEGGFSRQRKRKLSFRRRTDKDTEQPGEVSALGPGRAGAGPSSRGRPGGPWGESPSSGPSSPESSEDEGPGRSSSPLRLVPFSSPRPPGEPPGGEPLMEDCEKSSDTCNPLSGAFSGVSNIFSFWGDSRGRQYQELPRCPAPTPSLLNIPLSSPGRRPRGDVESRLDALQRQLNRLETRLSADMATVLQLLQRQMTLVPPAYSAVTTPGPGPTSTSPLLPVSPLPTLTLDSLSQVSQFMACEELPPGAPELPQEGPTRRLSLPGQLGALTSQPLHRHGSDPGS

Structure (SMILES)	hERG current change (%, negative = inhibition) at 10uM
CCCc1cc(=O)[nH]c(SCC(=O)NCCCC(=O)OCC)n1	-0.482%
CCOc1ccc(-n2c(-c3ccco3)nc3c(cnn3-c3ccc(C)cc3)c2=O)cc1	14.3%
CCOc1cc(N2CCOCC2)c(OCC)cc1NC(=O)CN1CCN(Cc2ccc3c(c2)OCO3)CC1.Cl	-55.8%
CC(=O)Nc1ccc2nc(NC(=O)C(Cl)(Cl)Cl)sc2c1	31.1%
CC(=O)Nc1ccc(S(=O)(=O)NC2(C(F)(F)F)C(=O)Nc3c2c(=O)[nH]c(=O)n3Cc2cccnc2)cc1 (stereo not drawn)	23.3%
O=C(Nc1ccc2c(c1)OCCO2)c1cccs1	12.4%
COc1ccc(CNC(=O)C(C)OC(=O)C23CC4CC(CC(O)(C4)C2)C3)cc1 (stereo not drawn)	21.4%
O=C(OCC(=O)c1c[nH]c2ccccc12)c1cccc([N+](=O)[O-])c1	0.167%
O=C(CSc1ncnc2c1oc1ccccc12)NCC1CCCO1 (stereo not drawn)	5.26%
CCOc1cccc2sc(N(CCN(C)C)C(=O)c3ccc4c(c3)OCCO4)nc12.Cl	-53.5%
COCCNC(=O)N1[C@H]2CC[C@@H]1C(C(=O)OC)=C(c1cccc(C#N)c1)C2	13.2%
CN(C)c1ccc(C(=O)N2CCCC(N3CCN(Cc4ccc5c(c4)OCO5)CC3)C2)cc1 (stereo not drawn)	-82.3%
Cc1cc(C)n(CCOC(=O)c2sc3ccccc3c2Cl)n1	20.5%
S=C(c1ccc2c(c1)OCO2)N1CCCCCC1	-3.92%
O=C(NCc1ccccc1)c1cnc(-c2ccccn2)nc1C(F)(F)F	10.9%
COc1cc(CNS(=O)(=O)CCl)cc(OC)c1OC	12.7%
CCN(CC)c1ccc(/C=N/Nc2nn[nH]n2)cc1	9.9%
COc1ccc2c(c1)CC/C(=C\c1ccc(C)o1)C2=O	8.29%
O=C(O)c1ccccc1C(=O)Nc1ccc(Nc2ccc([N+](=O)[O-])cc2[N+](=O)[O-])cc1	17.5%
CCN1CCN(c2ccc(S(=O)(=O)N3CCCCC3)cc2NC(=O)c2ccc([N+](=O)[O-])o2)CC1	-75.9%
O=C(CN1C(=O)NC2(CCCCC2)C1=O)Nc1ccc(S(=O)(=O)N2CCOCC2)cc1	1.2%
O=C(NC1CCN(C(=O)Nc2ccc(F)cc2)CC1)c1ccc(F)cc1	-24.9%

Structure (SMILES)	hERG current change (%, negative = inhibition) at 10uM
O=C(CCNC(=O)c1ccc([N+](=O)[O-])cc1)NCCc1ccc(Cl)cc1	-40.4%
C=CCN(c1ccccc1)S(=O)(=O)c1cccc(C(=O)N2CCCC2)c1	-16.7%
CN(Cc1ccc(OC(F)F)cc1)C(=O)C1CCN(S(=O)(=O)c2ccc3c(c2)OCCO3)CC1	-45.9%
O=c1c(Cl)c(N2CCN(c3ccc(F)cc3)CC2)cnn1-c1nc2ccccc2s1	3.66%
COc1ccccc1C(=O)Nc1ncc2c(n1)CC(c1ccco1)CC2=O (stereo not drawn)	-23.5%
CCCc1sc(N/N=C/c2ccccn2)nc1-c1ccc(Br)cc1	5.39%
CCOC(=O)c1ccc(NC(=O)N2C[C@@H]3C[C@@H](C2)c2cccc(=O)n2C3)cc1	10.5%
Cc1onc(-c2ccccc2)c1C(=O)NNC(=S)NC(=O)c1ccc(Br)cc1	16.1%
CCCC(=NCCc1c(C)[nH]c2ccccc12)C1=C(O)CC(c2ccccc2)CC1=O (stereo not drawn)	-22.2%
CCn1c(-c2ccccc2)ccc(C#N)c1=O	-3.7%
CCN(C(=O)COC(=O)c1c(-c2ccccc2)noc1C)C1CCS(=O)(=O)C1 (stereo not drawn)	-22.2%
O=C1CN(S(=O)(=O)c2ccc(Cl)cc2)CC(=O)N1CCc1ccccc1	-2.24%
Cn1ccnc1SCC(=O)Nc1cccc([N+](=O)[O-])c1	4.15%
CC1CCN(C(=O)CSc2nnc3c(n2)[nH]c2ccccc23)CC1	-0.738%
O=C(Nc1ccccc1C(=O)N1CCN(Cc2ccccc2)CC1)c1ccc(F)cc1	-23.5%
Cc1ccc(C(=O)NC(C)c2ccc(C)c(C)c2)s1 (stereo not drawn)	-20.3%
Cc1cc(C(=O)CSc2nncn2C)c(C)n1-c1ccccc1	3.47%
COC(=O)c1c(NC(=O)CN(c2ccccc2)S(C)(=O)=O)sc2c1CCCC2	17.8%
CCOC(=O)C1C(=O)NC(c2ccccc2)=NC1c1ccc(OC)cc1 (stereo not drawn)	-12.2%
CCOC(=O)Cc1c(C)nc2c(C#N)c(C)nn2c1C	-12.6%
COc1cccc(C(=O)N2CCCC(CCC(=O)NCc3ccc(F)c(F)c3)C2)c1 (stereo not drawn)	-17.5%
Cc1ccc(OCC(=O)Nc2ccccc2N2CCCC2)c(C)c1	-3.14%

Structure (SMILES)	hERG current change (%, negative = inhibition) at 10uM
Cc1ccc(/C=N/NC(=O)CSc2nc3ccccc3c(=O)n2-c2ccccc2C)s1	-14.6%
CN(CC(=O)Nc1ccc(F)cc1)C(=O)C1CCN(S(=O)(=O)c2ccc3c(c2)OCCO3)CC1	-20.9%
OCCC1CN(Cc2ccc3nsnc3c2)CCN1C1CCCC1 (stereo not drawn)	-25%
O=C(O)CCCC(=O)Nc1nc(-c2ccccc2)cs1	8.03%
Cc1ccc(S(=O)(=O)Nc2ccccc2N2CCOCC2)cc1	11.7%
CCOc1ccc(CN2CCNC(=O)C2CC(=O)NCc2csc(C)n2)cc1 (stereo not drawn)	5.96%
C/C(=N\O)C(C)NC(=O)c1ccccc1 (stereo not drawn)	23%
CC(C)OCCCNCc1cccs1	2.03%
O=C(Nc1ccc(S(=O)(=O)N2CCC(C(=O)NC3CCCCC3)CC2)cc1)c1ccco1	4.01%
CCCCCC(=O)N/N=C/c1ccccc1[N+](=O)[O-]	-15.4%
Cc1c(CCC(=O)NCCCn2ccnc2)c(=O)oc2cc3oc4c(c3cc12)CCCC4	-48.5%
O=C(Oc1cccc(C(=S)N2CCOCC2)c1)c1ccc([N+](=O)[O-])cc1[N+](=O)[O-]	-14.4%
Cc1ccc(NS(=O)(=O)c2ccc3c(c2)n(C)c(=O)c(=O)n3C)c(C)c1	-21.3%
COc1ccc(Cn2c(C3CC3)nc3ccc(NC(=O)c4ccco4)cc3c2=O)cc1	-7.52%
CC(=O)Nc1sc2c(c1C#N)CCN(Cc1ccccc1)C2.Cl	9.85%
COC(=O)C1C(=O)C(C(=O)c2ccccc2)C(=O)CC1(C)C (stereo not drawn)	0.179%
COc1ccc(OC)c(NC(=O)CCc2nnc3ccc(N4CCC(C)CC4)nn23)c1	-26.1%
Cc1cc(Br)ccc1NC(=O)CNC(=O)CSc1ncccn1	-2.38%
COc1ccc(CC(=O)Nc2nccs2)cc1OC	-2.88%
O=[N+]([O-])c1ccccc1S(=O)(=O)NCc1cccnc1	18.7%
CCN(CC)c1ccc(-c2nn3c(-c4ccccc4OC)nnc3s2)cc1	1.59%
O=c1cc2ncc(-c3[nH]ncc3[N+](=O)[O-])cn2[nH]1	13.3%

Structure (SMILES)	hERG current change (%, negative = inhibition) at 10uM
Cc1cc2cc(CNC(=S)Nc3ccc(OC(F)(F)F)cc3)ccc2n1C	16.4%
C/C(=N\O)C(C)(C)Nc1ccccc1F	4.26%
COc1ccc(OC)c(NS(=O)(=O)c2c(C)nc3sccn3c2=O)c1	-12.5%
COCCCNC(=O)c1cccn2c(=O)c3cc4ccccc4cc3nc12	-42.2%
CCOC(=O)N1CCN(C(=O)CCNS(=O)(=O)c2ccc3c(c2)c(=O)n(C)c(=O)n3C)CC1	29.8%
O=c1[nH]c(O)c(N=Nc2cc([N+](=O)[O-])ccc2O)c(=O)[nH]1	-17.7%
O=C(CSC(=S)N1CCCCC1)Nc1nc(-c2ccccc2)c(-c2ccccc2)o1	-8.32%
COc1ccc(CNC(=O)CN(Cc2ccccc2)C(=O)CCC(=O)Nc2nccs2)cc1	8.76%
O=C(CCC1CCN(C(=O)c2ccco2)CC1)NCc1ccc(F)cc1	-72.6%
O=C(NCCC1CCCCN1S(=O)(=O)c1ccccc1)C(=O)NCC1CCCO1 (stereo not drawn)	-2.54%
COc1ccc(-c2nn3c(-c4cccc(C)c4)nnc3s2)cc1OC	16.3%
CCCCCC(=O)NNC1=NCC(Cc2ccccc2)S1 (stereo not drawn)	-3.13%
COc1nccnc1NS(=O)(=O)c1ccc(NC(=S)NC(=O)/C=C/c2ccccc2)cc1	-2.3%
O=C1CCCc2sc3c(c2N1)CCCCC3	-0.836%
CSc1cccc(NC(=O)CN(C2CCCCC2)S(C)(=O)=O)c1	-7.59%
CCOc1ccc(N(CC(=O)NCc2ccccc2C)S(C)(=O)=O)cc1	-11.4%
Cc1ccc(/C=N\NC(=O)c2ccc3c(c2)OCO3)o1	7.74%
CCCC(O)(c1ccc(Cl)cc1)C(CN1CCOCC1)c1ccccc1 (stereo not drawn)	-4.29%
Cc1cccnc1CN1CCN(C(=O)CCc2nnc(CCc3ccccc3)o2)CC1	7.74%
CC1NC(=O)N(C)C2NC(=O)N(C)C(c3ccccc3)C12 (stereo not drawn)	13%
O=C(N=C1SC2CS(=O)(=O)CC2N1Cc1ccccc1Cl)C1CC1 (stereo not drawn)	8.94%
